Test results from ChEMBL document CHEMBL4888484, “Replenishing the malaria drug discovery pipeline: Screening and hit evaluation of the MMV Hit Generation Library 1 (HGL1) against asexual blood stage Plasmodium falciparum ,using a nano luciferase reporter read-out” (2022).
The campaign covered roughly 150,000 compounds. About 540 (0.36%) showed an effect of 50% or more. Some of the results follow.

The compounds below were run on Plasmodium falciparum (assay: Primary screen in NF54 nanoGlo assay, in single point, at 2uM, 72h; a lower Z score goes with more inhibition). Conditions: timepoint 72 hour.
Format: functional, Erythrocyte

Structure (SMILES) | % Inhibition [%] | Z score
Cc1nonc1CN1C[C@H]2CCC[C@@H](C1)N(C)C2=O | 15 | -2.14
Cc1ccccc1N1C(=O)CN(C(=O)c2onc3c2CCCC3)C[C@@H]1C | -2 | 0.3
O=C1C[C@H](C(=O)N2CCn3c2nc2ccccc23)CN1c1cccc(Br)c1 | -10 | 1.36
CC12N=NCC1C(=O)N(c1cccc(Cl)c1)C2=O (configuration not stated) | -11 | 1.74
O=C(Nc1cccc(-c2cccs2)c1)NC(C(=O)O)C1CCCOC1 (configuration not stated) | 10 | -1.27
O=C(CCc1ncccn1)NC[C@@]12CCC[C@@H]1OCC2 | -5 | 0.97
CN(Cc1ccccc1)c1cnn(CCCO)c(=O)c1 | -3 | 0.64
CCn1nc(-c2ccncc2)nc1-c1cc(C)nc(C)n1 | -19 | 2.25
COc1cccc(C(=O)N2CCN(C(=O)N3CCc4ccccc43)CC2)c1 | -2 | 0.22
O=S(=O)(c1ccc(-c2noc(-c3ccc(F)c(Cl)c3)n2)cc1)N1CCCCC1 | -3 | 0.49
CCOc1ncccc1C(=O)N[C@H]1CCN(Cc2c(C)noc2C)C[C@@H]1O | -15 | 1.42
C[C@H]1OCCN(C(=O)Cc2noc3ccccc23)[C@@H]1C(N)=O | -8 | 0.93
CCc1nc([C@H](C)NC2CCC3(CC2)OCCO3)cs1 | -3 | 0.35
O=C(Cc1ccccc1Cl)N1CCCOCC1 | -8 | 0.95
COc1ccc(F)c(CN2CCC([C@H](Cc3ccc(F)cc3F)N(C)C(=O)c3ccco3)CC2)c1 | -11 | 1.34
CC(C)N(CCO)C(=O)c1cn(C[C@H]2COc3ccccc3O2)nn1 | -8 | 1.19
Cc1ccc2c(c1)CN(Cc1cn(CC(N)=O)nn1)CCO2 | -2 | 0.21
COc1ccc2nc(OC3CCNCC3)sc2c1 | 19 | -2.41
Cc1ccc(CC2(NC(=O)[C@@H](c3cccc(F)c3)N(C)C)CC2)cc1 | -6 | 1.14

Structure (SMILES) | % Inhibition [%] | Z score
C[C@@H](CN(C)c1c(Cl)cccc1C#N)C(=O)O | -17 | 1.7
Nc1nnc(CNC(=O)[C@H]2CCN(c3ccc(C(F)(F)F)cn3)C2)s1 | -12 | 1.5
COC1(CNC(=O)c2oc(Br)cc2C)CCCCC1 | -6 | 1.16
Cn1ccnc1-c1csc(NC(=O)C2CC3C=CC2C3)n1 (configuration not stated) | -7 | 0.66
Cc1cccc(C(=O)N2CCCc3cc(C(=O)N4CCCC4)ccc32)c1 | -10 | 1.57
COC[C@H]1CCCCN1C(=O)CCc1ccnn1C | -12 | 1.6
O=C(O)c1cc(NS(=O)(=O)c2ccc(F)cc2)ccc1N1CCN(Cc2ccccc2F)CC1 | -9 | 1.67
CCN(CCNC(=O)c1csc2c1CCCCC2)c1ccccc1 | -8 | 1.04
CCCc1nnc(NC(=O)N(C)Cc2nnc(C)o2)[nH]1 | -10 | 1.54
Cc1cc(N2CCN(S(=O)(=O)c3ccc(F)cc3)CC2)nc(N2CCOCC2)n1 | -7 | 0.93
COC[C@H](C)S(=O)(=O)NCc1noc(-c2ccccc2)n1 | 16 | -1.97
Cc1noc(C)c1Cc1nc(CC(N)=O)nn1-c1ccc2c(c1)CCC2 | -14 | 1.9
Cc1noc(C)c1[C@@H](C)CC(=O)NCc1ccn2ccnc2c1 | -17 | 2.05
CNc1ccc(C(=O)N(Cc2ccnc(OC(C)C)c2)C2CC2)cn1 | -9 | 1.8
CCC(C)(C)NC(=O)c1csc(-c2ccc(N3CCCC3)nc2)n1 | -18 | 2.05
COc1c2c(cc3c1[C@H](CC(=O)Cc1ccccc1)[N+](C)(C)CC3)OCO2 | -1 | 0.08
CCCc1nccnc1NC(=O)[C@H]1CC(C)(C)OC1(C)C | -3 | 0.38
CCc1nn(-c2ccccc2)c2ncc3cc(OC)c(OC)cc3c12 | -4 | 0.5
CC(C)C(=O)Nc1cnc(-c2cccnc2)nc1 | -15 | 2.46

Structure (SMILES) | % Inhibition [%] | Z score
CCN(CC)C(=O)c1cc(Br)c[nH]1 | 5 | -0.68
O=C(Cc1c(Cl)cccc1Cl)N1CC[C@]2(CCOC2)C1 | 39 | -5.23
C=C(C)C[C@H](C)C(=O)NCc1ccc(OCC(F)(F)F)nn1 | -9 | 1.57
CC(NC(=O)NC(CCO)C(C)(C)C)C1CCOC1 (configuration not stated) | -24 | 2.31
COc1ccc(CC(=O)N[C@H]2CCc3nnn(C)c3C2)c(C)c1 | -9 | 1.44
COc1ccccc1CC(=O)Nc1cc(N2CCC(C)CC2)ncn1 | -15 | 2.91
Cc1ccc(CNC(=O)C(=O)NC2CCCCC2)cc1 | -9 | 1.17
CC(C)(C)c1ccc(C(C)(C)C)c(NC(=O)N[C@H]2CCCNC2=O)c1 | -5 | 1.12
C=C(C)CN(CC)[C@@H](C)CCc1ccc(OC)cc1 | 4 | -0.58
CCC(C)(C)NC(=O)CN(C)Cc1nc(C)c[nH]1 | -14 | 1.94
CC(NC(=O)C1CCC(=O)NC1)c1ccc2c(c1)OCCO2 (configuration not stated) | -12 | 1.06
OC12CC(Cc3cccnc31)c1ccccc12 (configuration not stated) | 7 | -1.14
Cc1ccc2[nH]nc(CNC(=O)CCN3CCCCC3)c2c1 | -3 | 0.61
Cc1cccc(-n2cc(-c3ccnc(N[C@@H](C)Cc4ccncc4)n3)cn2)c1 | -14 | 2.61
CN(Cc1ccco1)C(=O)CCCc1c[nH]c2ccccc12 | -5 | 0.71
N#C[C@@H](NC(=O)CCCc1ccccn1)c1c(F)cccc1Cl | 1 | -0.1
C[C@H](NC(=O)Cn1nnnc1CNC(=O)OC(C)(C)C)c1ccc(Cl)c(Cl)c1 | -1 | 0.24
CCOC(=O)c1ccc(NC(=O)[C@H](CC)N2C(=O)CCn3nc(C)cc32)cc1 | 0 | 0.05
